From the supplement of paper PMC4604168 (melanoma cell lines)
Some of the results follow. Many values rest on one well or one pass, so single values are uncertain.

Tests used:
Assay in all cases: cell count relative to DMSO control; melanoma cells; higher = more viable cells
Conditions in all cases: library dose: low library concentration; 72 h
WM115 = test system: WM115
WM1716 = test system: WM1716
WM1745 = test system: WM1745
WM3526 = test system: WM3526
WM3619 = test system: WM3619
WM451Lu = test system: WM451Lu
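Note: cell number obtained by counting DAPI-stained nuclei in high-throughput microscope images with image analysis software, screen run in 1,536-well plates.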

SMILES	cell count (WM115) [%]	cell count (WM1716) [%]	cell count (WM1745) [%]	cell count (WM3526) [%]	cell count (WM3619) [%]	cell count (WM451Lu) [%]
Nc1ncn([C@H]2C[C@H](O)[C@@H](CO)O2)c(=O)n1 [decitabine] + N#Cc1c(O)c2c(-c3ccc(-c4ccccc4O)cc3)csc2[nH]c1=O [A769662] (first compound 0.1 µM, partner dose 2 µM)	90.2	87.3	91.7	109	90.4	149
CC(=O)c1c(C)c2cnc(Nc3ccc(N4CCNCC4)cn3)nc2n(C2CCCC2)c1=O [palbociclib] + N#Cc1c(O)c2c(-c3ccc(-c4ccccc4O)cc3)csc2[nH]c1=O [A769662] (first compound 0.04 µM, partner dose 2 µM)	72.1	57.2	72.6	60.8	70	57.4
Nc1ccn([C@@H]2O[C@H](CO)[C@@H](O)C2(F)F)c(=O)n1 [gemcitabine] + COCC[n+]1c2c(n(Cc3cnccn3)c1C)C(=O)c1ccccc1C2=O [YM155] (first compound 0.0004 µM, partner dose 0.0004 µM)	92	84.5	86	79.6	48.5	42.8
CC(=O)O[C@@]12CO[C@@H]1C[C@H](O)[C@@]1(C)C(=O)[C@H](O)C3=C(C)[C@@H](OC(=O)[C@H](O)[C@@H](NC(=O)OC(C)(C)C)c4ccccc4)C[C@@](O)([C@@H](OC(=O)c4ccccc4)[C@H]21)C3(C)C [Docetaxel] + CN(C)S(=O)(=O)c1ccc2c(c1)/C(=C/c1cc3c([nH]1)CCCC3)C(=O)N2 [SU6656] (first compound 0.0001 µM, partner dose 0.4 µM)	49.3	30.7	38.8	30.2	82.5	59.2
CO[C@H]1C[C@@H]2CC[C@@H](C)[C@@](O)(O2)C(=O)C(=O)N2CCCC[C@H]2C(=O)O[C@H]([C@H](C)C[C@@H]2CC[C@@H](OCCO)[C@H](OC)C2)CC(=O)[C@H](C)/C=C(\C)[C@@H](O)[C@@H](OC)C(=O)[C@H](C)C[C@H](C)/C=C/C=C/C=C/1C [everolimus] + O=C(O)C(=O)Nc1sc2c(c1C(=O)O)CCNC2 [TCS401] (first compound 0.02 µM, partner dose 1.66667 µM)	72.8	83.9	78.6	64.2	56.6	69.7
CO[C@H]1C[C@@H]2CC[C@@H](C)[C@@](O)(O2)C(=O)C(=O)N2CCCC[C@H]2C(=O)O[C@H]([C@H](C)C[C@@H]2CC[C@@H](OCCO)[C@H](OC)C2)CC(=O)[C@H](C)/C=C(\C)[C@@H](O)[C@@H](OC)C(=O)[C@H](C)C[C@H](C)/C=C/C=C/C=C/1C [everolimus] + CCCCCCCCCCCC1=C(O)C(=O)C=C(O)C1=O [Embelin] (first compound 0.02 µM, partner dose 1.2 µM)	79.1	91.6	88.1	64.6	67.8	79.6
Nc1nc(F)nc2c1ncn2[C@@H]1O[C@H](CO)[C@@H](O)[C@@H]1O [fludarabine] + CC(C)CCN1c2nc(Nc3cc(F)c(O)c(F)c3)ncc2N(C)C(=O)C1C [BID1870] (first compound 0.2 µM, partner dose 0.2 µM)	90.9	102	82	28.6	99.1	42
CC(=O)c1c(C)c2cnc(Nc3ccc(N4CCNCC4)cn3)nc2n(C2CCCC2)c1=O [palbociclib] + COc1cc(Nc2ncc(F)c(Nc3ccc4c(n3)NC(=O)C(C)(C)O4)n2)cc(OC)c1OC [Tamatinib] (first compound 0.04 µM, partner dose 0.4 µM)	69.4	52.9	51.7	48.5	77	80.8
CC(=O)O[C@@]12CO[C@@H]1C[C@H](O)[C@@]1(C)C(=O)[C@H](O)C3=C(C)[C@@H](OC(=O)[C@H](O)[C@@H](NC(=O)OC(C)(C)C)c4ccccc4)C[C@@](O)([C@@H](OC(=O)c4ccccc4)[C@H]21)C3(C)C [Docetaxel] + COc1ccc2c(c1)CCC1C2CCC2(C)C(NCCCCCCN3C(=O)C=CC3=O)CCC12 [U73122] (first compound 0.0001 µM, partner dose 0.4 µM)	53.3	32.2	39	34.7	50.5	50.3
Nc1ccn([C@@H]2O[C@H](CO)[C@@H](O)C2(F)F)c(=O)n1 [gemcitabine] + COc1ccc(-c2ccc3c(N4CCOCC4)nc(N4C[C@@H](C)O[C@@H](C)C4)nc3n2)cc1CO [KU0063794] (first compound 0.0004 µM, partner dose 0.02 µM)	91.1	85.3	57.6	87.9	66.7	103
CO[C@H]1C[C@@H]2CC[C@@H](C)[C@@](O)(O2)C(=O)C(=O)N2CCCC[C@H]2C(=O)O[C@H]([C@H](C)C[C@@H]2CC[C@@H](OCCO)[C@H](OC)C2)CC(=O)[C@H](C)/C=C(\C)[C@@H](O)[C@@H](OC)C(=O)[C@H](C)C[C@H](C)/C=C/C=C/C=C/1C [everolimus] + NCC(=O)Nc1ccc(-n2nc(C(F)(F)F)cc2-c2ccc3c(ccc4ccccc43)c2)cc1 [OSU03012] (first compound 0.02 µM, partner dose 1 µM)	75.6	92.1	92.4	63	154	58.6
CC(=O)O[C@@]12CO[C@@H]1C[C@H](O)[C@@]1(C)C(=O)[C@H](O)C3=C(C)[C@@H](OC(=O)[C@H](O)[C@@H](NC(=O)OC(C)(C)C)c4ccccc4)C[C@@](O)([C@@H](OC(=O)c4ccccc4)[C@H]21)C3(C)C [Docetaxel] + CN1CCN(c2ccc3nc(-c4c(N)c5c(F)cccc5[nH]c4=O)[nH]c3c2)CC1 [Dovitinib] (first compound 0.0001 µM, partner dose 0.1 µM)	54.8	32	38.9	38.6	56.3	48.5
Nc1ncn([C@H]2C[C@H](O)[C@@H](CO)O2)c(=O)n1 [decitabine] + O=C(O)c1ccc(-c2c[nH]c3ncc(-c4ccccc4)cc23)cc1C1CCCC1 [GSK650394] (first compound 0.1 µM, partner dose 0.16 µM)	75.4	73.1	92	93.4	115	61.9
CC(=O)O[C@@]12CO[C@@H]1C[C@H](O)[C@@]1(C)C(=O)[C@H](O)C3=C(C)[C@@H](OC(=O)[C@H](O)[C@@H](NC(=O)OC(C)(C)C)c4ccccc4)C[C@@](O)([C@@H](OC(=O)c4ccccc4)[C@H]21)C3(C)C [Docetaxel] + CC1(C)NC(=O)N(c2ccc([N+](=O)[O-])c(C(F)(F)F)c2)C1=O [nilutamide] (first compound 0.0001 µM, partner dose 1 µM)	54.4	33.5	34.9	39.8	96.4	44.7
CC(=O)O[C@@]12CO[C@@H]1C[C@H](O)[C@@]1(C)C(=O)[C@H](O)C3=C(C)[C@@H](OC(=O)[C@H](O)[C@@H](NC(=O)OC(C)(C)C)c4ccccc4)C[C@@](O)([C@@H](OC(=O)c4ccccc4)[C@H]21)C3(C)C [Docetaxel] + CS(=O)(=O)CCNCc1ccc(-c2ccc3ncnc(Nc4ccc(OCc5cccc(F)c5)c(Cl)c4)c3c2)o1 [lapatinib] (first compound 0.0001 µM, partner dose 0.8 µM)	54.1	46.7	46.1	53.8	53.4	62.4
CO[C@H]1C[C@@H]2CC[C@@H](C)[C@@](O)(O2)C(=O)C(=O)N2CCCC[C@H]2C(=O)O[C@H]([C@H](C)C[C@@H]2CC[C@@H](OCCO)[C@H](OC)C2)CC(=O)[C@H](C)/C=C(\C)[C@@H](O)[C@@H](OC)C(=O)[C@H](C)C[C@H](C)/C=C/C=C/C=C/1C [everolimus] + C[C@]1(c2nc3c(C(N)=O)cccc3[nH]2)CCCN1 [Veliparib] (first compound 0.02 µM, partner dose 1.4 µM)	77.6	75.5	70.3	61.2	83.9	87.4
CO[C@H]1C[C@@H]2CC[C@@H](C)[C@@](O)(O2)C(=O)C(=O)N2CCCC[C@H]2C(=O)O[C@H]([C@H](C)C[C@@H]2CC[C@@H](OCCO)[C@H](OC)C2)CC(=O)[C@H](C)/C=C(\C)[C@@H](O)[C@@H](OC)C(=O)[C@H](C)C[C@H](C)/C=C/C=C/C=C/1C [everolimus] + CC(C)(C)c1cnc(CSc2cnc(NC(=O)C3CCNCC3)s2)o1 [SNS-032] (first compound 0.02 µM, partner dose 0.01 µM)	69.1	83	84.9	63.7	74.8	77.9
